# Results from the supplement of paper PMC3334620.
# The full ranking holds about 33,000 sequences; the median of “E-score (-0.5 to 0.5)” is about -0.012, and the highest 2% start at about 0.27. Some of the results follow.
# Target: T1, Vhr1 (UniProt P40522)
# T1 sequence: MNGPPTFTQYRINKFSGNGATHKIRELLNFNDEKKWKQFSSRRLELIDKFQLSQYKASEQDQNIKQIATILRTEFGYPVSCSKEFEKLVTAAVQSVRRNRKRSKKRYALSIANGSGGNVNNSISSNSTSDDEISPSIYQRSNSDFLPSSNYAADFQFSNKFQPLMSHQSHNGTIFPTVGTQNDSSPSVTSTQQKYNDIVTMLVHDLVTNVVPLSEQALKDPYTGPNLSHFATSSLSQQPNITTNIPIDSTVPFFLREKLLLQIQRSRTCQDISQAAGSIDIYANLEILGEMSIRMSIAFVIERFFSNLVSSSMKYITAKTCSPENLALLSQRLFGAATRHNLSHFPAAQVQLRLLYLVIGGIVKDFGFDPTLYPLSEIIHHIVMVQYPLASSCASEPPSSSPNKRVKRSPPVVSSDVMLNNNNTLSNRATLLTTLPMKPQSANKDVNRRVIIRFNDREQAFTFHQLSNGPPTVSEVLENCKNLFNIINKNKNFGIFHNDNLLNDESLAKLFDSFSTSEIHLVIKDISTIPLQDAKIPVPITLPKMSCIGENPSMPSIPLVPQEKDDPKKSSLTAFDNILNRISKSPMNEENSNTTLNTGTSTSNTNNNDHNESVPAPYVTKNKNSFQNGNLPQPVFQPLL
# Test: PBM E-score (8-mer binding enrichment) (E-score (-0.5 to 0.5)); higher = stronger / more preferred TF binding; most listed sequences are background and not binding sites
# Details: protein concentration: 200 nM; construct: GST-full length
# In short: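 Full-length yeast transcription factors or their DNA-binding domains, GST-tagged and expressed with PURExpress, were applied at about 100-200 nM to universal all-10-mer Agilent arrays. These arrays had been made double-stranded by primer extension on fresh or once-stripped slides. Detection used fluorescent anti-GST, normalisation used masliner, and E-scores for ungapped eight-base words pooled with reverse complements came from the Universal PBM Analysis Suite.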
row,Sequence,PBM E-score
1,ATTGCTGG,-0.0562
2,ACGTCTTG,-0.244
3,TATCCACA,0.0724
4,CTATGGAC,-0.00601
5,AGCTATAG,-0.337
6,CGACTACA,0.272
7,GGGGGTAC,0.147
8,AGCAAAGA,-0.179
9,GAAATTTC,-0.369
10,AGGACCGC,-0.164
11,GAGTACTA,0.122
12,GCAAGCGA,0.0938
13,CGACAACC,-0.0275
14,AAGGGATA,-0.00957
15,AACCAAGA,0.112
16,CAGCTCGC,0.113
17,AGTTGAAT,0.0869
18,AAAGAGCT,-0.205
19,AATTTCTC,-0.127
20,TCCACCAA,0.0925
21,ATGGACTG,-0.0399
22,CTGAAAGC,0.0431
23,AGTGGCAA,-0.0529
24,ATAAGTCG,0.0638
25,AACCCTCC,-0.129

row,Sequence,PBM E-score
1,GGGTAGGA,-0.108
2,CTAAAGGA,-0.156
3,CCGAACGG,-0.0149
4,CTCCACAA,0.167
5,GCCCAAAA,-0.158
6,ATTTTTTG,-0.193
7,CGTGCGCC,0.102
8,ATGTGCGA,0.0627
9,GCGGATAC,0.221
10,ATTGGTCC,-0.0847
11,CACCAAGA,0.0345
12,ATGGCGGA,-0.0276
13,AACGTTGG,0.0188
14,AGGAGACT,0.0194
15,CACGCTCA,0.137
16,ATCGCACG,-0.0779
17,GAGCGATC,-0.132
18,TCGGCAAA,-0.101
19,AAGCGCGA,0.0906
20,GACATAGC,-0.149
21,CTTCCATC,-0.0671
22,GATCTTGC,0.0151
23,CGACCAGA,0.0575
24,ATCAGTTG,0.209
25,ATAACCCC,0.0677

row,Sequence,PBM E-score
1,CAGTACTA,0.167
2,CCGTGTAC,0.141
3,ACCAAGGA,0.0223
4,ATCGGGGC,-0.182
5,AATAGACT,0.102
6,ACTCTCCC,0.194
7,AATTCCTC,-0.0821
8,CCTATATC,0.0207
9,GTCGTGGA,-0.0253
10,ACATGAGT,0.279
11,ACTTGAGC,-0.154
12,GATTTTAC,-0.0634
13,GACGAAGC,-0.047
14,GGAACGAC,-0.138
15,CATCCCCC,-0.0872
16,CGTCCGAC,-0.142
17,ATATAGTA,0.202
18,GCCGCGAA,-0.125
19,CTAATAGA,0.032
20,ACAAGACC,-0.231
21,AAGTAGAA,-0.177
22,ACCAGGAG,0.00869
23,CGAAATAG,-0.166
24,CTCGAAGC,-0.156
25,TCTGCGCA,-0.115

row,Sequence,PBM E-score
1,CTCATAAG,0.145
2,AGAGGTAC,-0.183
3,CGGGGGAG,-0.0972
4,TGCACTAA,0.0186
5,AGATTCGG,-0.0676
6,AGCACATC,0.228
7,GACGGATA,0.104
8,ATCGCTTA,-0.193
9,TCCGATAA,-0.193
10,AGTGGATA,0.0901
11,GAGTATGA,0.228
12,ACTATTGA,0.261
13,CTGAATAA,0.0438
14,TAATTATA,0.223
15,GGCGAAGA,-0.152
16,AGACGGGG,0.012
17,GTCGTTAA,-0.257
18,CCCAAAAC,0.0767
19,AGCCCCTC,0.0759
20,CATTATGA,0.0974
21,CACTAGTG,0.0929
22,CCAGCTTC,0.0649
23,CGCACTAC,-0.0416
24,CCCCTACG,-0.139
25,CACGGTAG,-0.0365

row,Sequence,PBM E-score
1,ACCACTTG,-0.00054
2,CAAGGATA,0.117
3,ACACTACC,0.0417
4,TACCTCCA,0.0333
5,AGTGCTAA,0.0517
6,GTCAGCCA,0.183
7,AGGGATTG,-0.0704
8,GCGCGGTA,0.175
9,TCTGAGCA,-0.0423
10,ACCCTATC,0.135
11,GAGACGTA,0.0377
12,ATTTGGAG,-0.19
13,ACATTAAA,-0.102
14,CCTGTATA,0.0499
15,CGTACTCC,-0.0124
16,CCTATTTC,-0.104
17,ACCGATCG,0.0571
18,AGTCATAT,0.421
19,CGACAGGA,0.0413
20,AAGCTTAG,-0.0364
21,TGATTTAA,0.229
22,AAAGTCTC,-0.405
23,GCAATTGC,-0.0693
24,ACAGCGAG,-0.0186
25,CCACGTGA,-7e-05

row,Sequence,PBM E-score
1,ATATAGGC,-0.0174
2,ACCGAAAA,0.0291
3,CAACAAGC,0.152
4,AACCTTAA,-0.138
5,GGGGCTAA,-0.205
6,GGGTGCTA,0.0335
7,CCTCTCGA,-0.142
8,ATGCTCTG,-0.0683
9,AGCATCCG,-0.0745
10,CAATGTTC,0.0349
11,GGATTGTA,-0.158
12,ACGGCGCC,-0.156
13,AACGTGGG,-0.156
14,ATCGCACA,-0.0093
15,GCGCATGA,0.0938
16,CATGCACA,0.2
17,CAACCCTG,0.15
18,ACCTACGT,-0.0787
19,GGGACTTA,-0.202
20,CTACGAAG,-0.0622
21,CAAACGCA,-0.0229
22,CATTGGAG,-0.0586
23,CGGTGCTA,-0.0557
24,CATCTAAC,-0.104
25,CATATTGA,-0.0191

row,Sequence,PBM E-score
1,AGCCCGGA,-0.0206
2,ATACATTC,0.0568
3,CTAGGCAA,-0.303
4,GACTTGCC,0.00249
5,AATGACAG,0.0197
6,ACAAGAGA,0.00534
7,CTCTGTCC,0.0395
8,CATCACGA,0.0697
9,AATGACTC,0.463
10,GTAACTAA,0.148
11,CGGGTGCA,-0.0321
12,CAGTGGGC,-0.0826
13,CAATGGCC,-0.229
14,GACATCAC,0.0237
15,CCCCTGCA,-0.11
16,ACACTAAA,0.238
17,AGCGCGTC,-0.0214
18,GCAGCACC,-0.0745
19,CGTTAGAA,-0.323
20,ACTTCCTA,0.0303
21,ACGGACCC,-0.0938
22,AGAGACAC,-0.0162
